Consider four molecules from PMC11876325.

By UniProt entry, the sequences of proteins in these tests, tags left out.
UniProt P25454: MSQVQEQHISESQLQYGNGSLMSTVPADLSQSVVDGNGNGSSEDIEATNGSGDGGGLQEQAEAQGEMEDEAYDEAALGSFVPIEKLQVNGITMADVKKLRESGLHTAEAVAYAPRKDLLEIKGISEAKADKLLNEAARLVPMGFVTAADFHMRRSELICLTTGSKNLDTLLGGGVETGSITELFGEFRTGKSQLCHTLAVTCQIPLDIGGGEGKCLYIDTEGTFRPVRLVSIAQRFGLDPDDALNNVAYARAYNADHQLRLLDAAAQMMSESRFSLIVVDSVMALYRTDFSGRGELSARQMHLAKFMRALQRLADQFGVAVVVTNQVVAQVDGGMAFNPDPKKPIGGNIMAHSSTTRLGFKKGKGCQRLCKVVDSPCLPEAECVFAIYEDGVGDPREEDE

No constants are given. Whether binding was seen depends on the method and setting. Some entries that bind do so weakly or less than the wild type.

Common to all, as to test: two-hybrid; GAL4 DNA-binding domain (pGBD) and GAL4 activation domain (pGAD) fusions co-transformed into PJ69-4α (also its rad51∆, rad55∆, csm2∆, shu1∆ and shu2∆ derivatives); growth on SC-L-W-H, 2-3 days, 30 °C
Assay [1] has as its target T1, Mcm10 (pGBD Mcm10) (S. cerevisiae) (UniProt P32354).
T1 sequence: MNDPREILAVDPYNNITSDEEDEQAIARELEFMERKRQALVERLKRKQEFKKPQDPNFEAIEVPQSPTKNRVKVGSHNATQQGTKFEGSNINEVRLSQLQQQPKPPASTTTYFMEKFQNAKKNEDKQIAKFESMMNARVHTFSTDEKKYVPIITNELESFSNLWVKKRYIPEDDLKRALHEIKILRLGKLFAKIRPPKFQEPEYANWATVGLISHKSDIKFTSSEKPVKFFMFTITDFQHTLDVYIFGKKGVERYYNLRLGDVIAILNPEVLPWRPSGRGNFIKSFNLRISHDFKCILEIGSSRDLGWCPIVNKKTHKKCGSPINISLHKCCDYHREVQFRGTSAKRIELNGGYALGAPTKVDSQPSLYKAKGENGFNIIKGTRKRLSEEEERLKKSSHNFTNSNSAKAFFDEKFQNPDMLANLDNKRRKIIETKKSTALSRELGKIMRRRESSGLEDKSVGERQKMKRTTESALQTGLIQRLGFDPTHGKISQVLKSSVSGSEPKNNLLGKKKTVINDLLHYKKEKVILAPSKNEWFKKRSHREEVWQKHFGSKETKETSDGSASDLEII

Assay [2] has as its target T2, Psy3-T17A (pGBD psy3-T17A) (S. cerevisiae) (UniProt Q12318).
T2 sequence: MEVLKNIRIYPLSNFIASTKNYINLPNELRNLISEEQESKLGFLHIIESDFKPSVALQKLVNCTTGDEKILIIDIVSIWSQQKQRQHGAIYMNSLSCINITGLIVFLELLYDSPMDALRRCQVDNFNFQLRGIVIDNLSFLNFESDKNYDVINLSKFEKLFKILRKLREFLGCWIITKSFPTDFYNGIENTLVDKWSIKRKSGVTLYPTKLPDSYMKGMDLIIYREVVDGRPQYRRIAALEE

Assay [3] has as its target T3, Psy3 (pGBD Psy3) (S. cerevisiae) (UniProt Q12318).
T3 sequence: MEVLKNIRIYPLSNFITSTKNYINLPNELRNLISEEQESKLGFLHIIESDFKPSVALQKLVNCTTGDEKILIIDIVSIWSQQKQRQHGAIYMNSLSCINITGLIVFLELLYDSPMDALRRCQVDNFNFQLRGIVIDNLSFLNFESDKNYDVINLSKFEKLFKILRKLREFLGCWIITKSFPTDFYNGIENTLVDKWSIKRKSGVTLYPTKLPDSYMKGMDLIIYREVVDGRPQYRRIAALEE

Assay [4] addresses T4, Psy3-L12A (pGBD psy3-L12A) (S. cerevisiae) (UniProt Q12318).
T4 sequence: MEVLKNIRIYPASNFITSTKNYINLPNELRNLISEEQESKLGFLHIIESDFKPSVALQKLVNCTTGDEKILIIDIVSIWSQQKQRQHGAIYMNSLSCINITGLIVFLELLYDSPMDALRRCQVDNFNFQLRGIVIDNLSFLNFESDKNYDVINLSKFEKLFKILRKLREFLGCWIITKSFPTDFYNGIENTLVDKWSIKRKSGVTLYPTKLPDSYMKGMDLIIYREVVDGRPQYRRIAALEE

In assay [5] the target is T5, Psy3-S18A (pGBD psy3-S18A) (S. cerevisiae) (UniProt Q12318).
T5 sequence: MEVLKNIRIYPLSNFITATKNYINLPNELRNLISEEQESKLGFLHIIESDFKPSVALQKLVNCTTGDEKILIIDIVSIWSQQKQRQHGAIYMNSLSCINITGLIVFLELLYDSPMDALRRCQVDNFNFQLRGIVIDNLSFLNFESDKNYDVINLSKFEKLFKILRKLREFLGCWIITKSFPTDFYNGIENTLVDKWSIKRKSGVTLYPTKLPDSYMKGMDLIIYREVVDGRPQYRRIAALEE

In assay [6] the target is T6, Psy3-Y10A (pGBD psy3-Y10A) (S. cerevisiae) (UniProt Q12318).
T6 sequence: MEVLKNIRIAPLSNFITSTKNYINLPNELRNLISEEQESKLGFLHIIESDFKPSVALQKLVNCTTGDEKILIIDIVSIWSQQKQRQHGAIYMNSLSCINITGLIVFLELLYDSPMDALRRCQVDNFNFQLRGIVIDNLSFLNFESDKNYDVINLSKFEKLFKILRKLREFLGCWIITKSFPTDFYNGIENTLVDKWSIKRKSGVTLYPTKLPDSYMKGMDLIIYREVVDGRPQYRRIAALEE

In assay [7] the target is T7, Psy3-F15A (pGBD psy3-F15A) (S. cerevisiae) (UniProt Q12318).
T7 sequence: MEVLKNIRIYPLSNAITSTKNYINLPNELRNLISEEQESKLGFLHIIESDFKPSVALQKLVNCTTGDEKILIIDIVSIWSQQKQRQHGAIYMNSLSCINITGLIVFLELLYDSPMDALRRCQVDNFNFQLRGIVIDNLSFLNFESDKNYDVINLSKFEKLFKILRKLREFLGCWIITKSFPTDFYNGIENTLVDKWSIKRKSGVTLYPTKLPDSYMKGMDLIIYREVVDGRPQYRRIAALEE

Assay [8] has as its target T8, Rad55 (pGBD Rad55) (S. cerevisiae) (UniProt P38953).
T8 sequence: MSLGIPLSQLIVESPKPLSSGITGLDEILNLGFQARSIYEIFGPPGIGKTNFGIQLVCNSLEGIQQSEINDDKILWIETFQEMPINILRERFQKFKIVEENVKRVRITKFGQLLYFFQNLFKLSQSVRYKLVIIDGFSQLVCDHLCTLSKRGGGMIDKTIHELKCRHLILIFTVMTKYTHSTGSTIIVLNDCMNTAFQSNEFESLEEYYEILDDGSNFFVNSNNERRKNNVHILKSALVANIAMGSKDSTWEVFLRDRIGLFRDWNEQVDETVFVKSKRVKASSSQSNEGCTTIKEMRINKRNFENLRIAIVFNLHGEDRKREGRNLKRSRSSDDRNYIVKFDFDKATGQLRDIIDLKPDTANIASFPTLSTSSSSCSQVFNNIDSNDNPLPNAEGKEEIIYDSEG

In assay [9] the target is Rad51 (two-hybrid fusion) (S. cerevisiae) (UniProt P25454).
Assay [10] has as its target T9, Rad57 (pGBD Rad57) (S. cerevisiae) (UniProt P25301).
T9 sequence: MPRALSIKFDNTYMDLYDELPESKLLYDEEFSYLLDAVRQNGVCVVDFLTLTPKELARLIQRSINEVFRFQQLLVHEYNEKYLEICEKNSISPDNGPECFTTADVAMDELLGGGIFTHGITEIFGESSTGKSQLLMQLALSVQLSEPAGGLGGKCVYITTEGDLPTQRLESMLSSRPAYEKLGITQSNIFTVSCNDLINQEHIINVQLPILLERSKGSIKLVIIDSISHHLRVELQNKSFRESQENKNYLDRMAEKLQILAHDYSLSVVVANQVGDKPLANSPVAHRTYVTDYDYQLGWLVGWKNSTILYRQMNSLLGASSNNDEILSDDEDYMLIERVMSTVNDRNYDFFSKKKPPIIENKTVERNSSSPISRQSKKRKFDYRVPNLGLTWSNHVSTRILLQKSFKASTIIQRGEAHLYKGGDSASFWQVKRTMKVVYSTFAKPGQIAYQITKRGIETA

B1: Psy3 (pGAD Psy3) (protein, UniProt Q12318 1-242)
chain: MEVLKNIRIYPLSNFITSTKNYINLPNELRNLISEEQESKLGFLHIIESDFKPSVALQKLVNCTTGDEKILIIDIVSIWSQQKQRQHGAIYMNSLSCINITGLIVFLELLYDSPMDALRRCQVDNFNFQLRGIVIDNLSFLNFESDKNYDVINLSKFEKLFKILRKLREFLGCWIITKSFPTDFYNGIENTLVDKWSIKRKSGVTLYPTKLPDSYMKGMDLIIYREVVDGRPQYRRIAALEE
As for B1, in assay [1], the binding result is reported as “no binding”.

B2: Csm2 (pGAD Csm2) (protein, UniProt P40465 1-213)
chain: MEYEDLELITIWPSPTKNKLCQFIKQNLSKEHVVTQLFFIDATSSFPLSQFQKLVPPTLPENVRIYENIRINTCLDLEELSAITVKLLQILSMNKINAQRGTEDAVTEPLKIILYINGLEVMFRNSQFKSSPQRSHELLRDTLLKLRVMGNDENENASIRTLLEFPKEQLLDYYLKKNNNTRTSSVRSKRRRIKNGDSLAEYIWKYYADSLFE
Consider B2, for which the binding entry is “binds” in [2]; “no binding” in [1]; “binds” in assay [3]; “binds” in assay [4]; “binds” in [5]; “binds” in [6]. For the same molecule, in assay [7], the binding entry was “binds”.

B3: Shu2 (pGAD Shu2) (protein, UniProt P38957 1-223)
chain: MSKDVIEYSKLFAKLVNTNDDTKLDDTIASFLYYMFPRELFIRAISLLESSDMFIYILDRVHNKEGNEHTSLIDVLVDEFYKGSSNSLLEYRLIVKDTNDGAPPILVDIAHWFCSCEEFCKYFHEALEKTDEKEELHDVLINEVDDHLQFSDDRFAQLDPHSLSKQWYFKFDKVCCSHLLAFSILLRSSINVLKFFTVNSNKVFVIAIDNIDEWLNLHINIVE
As to B3, in assay [1], the binding entry is given as “no binding”.

B4: Mcm7 (pGAD Mcm7) (protein, UniProt P38132 1-845)
chain: MSAALPSIQLPVDYNNLFNEITDFLVTFKQDTLSSDATRNENEDENLDAENIEQHLLEKGPKYMAMLQKVANRELNSVIIDLDDILQYQNEKFLQGTQADDLVSAIQQNANHFTELFCRAIDNNMPLPTKEIDYKDDVLDVILNQRRLRNERMLSDRTNEIRSENLMDTTMDPPSSMNDALREVVEDETELFPPNLTRRYFLYFKPLSQNCARRYRKKAISSKPLSVRQIKGDFLGQLITVRGIITRVSDVKPAVEVIAYTCDQCGYEVFQEVNSRTFTPLSECTSEECSQNQTKGQLFMSTRASKFSAFQECKIQELSQQVPVGHIPRSLNIHVNGTLVRSLSPGDIVDVTGIFLPAPYTGFKALKAGLLTETYLEAQFVRQHKKKFASFSLTSDVEERVMELITSGDVYNRLAKSIAPEIYGNLDVKKALLLLLVGGVDKRVGDGMKIRGDINVCLMGDPGVAKSQLLKAICKISPRGVYTTGKGSSGVGLTAAVMKDPVTDEMILEGGALVLADNGICCIDEFDKMDESDRTAIHEVMEQQTISISKAGINTTLNARTSILAAANPLYGRYNPRLSPLDNINLPAALLSRFDILFLMLDIPSRDDDEKLAEHVTYVHMHNKQPDLDFTPVEPSKMREYIAYAKTKRPVMSEAVNDYVVQAYIRLRQDSKREMDSKFSFGQATPRTLLGIIRLSQALAKLRLADMVDIDDVEEALRLVRVSKESLYQETNKSKEDESPTTKIFTIIKKMLQETGKNTLSYENIVKTVRLRGFTMLQLSNCIQEYSYLNVWHLINEGNTLKFVDDGTMDTDQEDSLVSTPKLAPQTTASANVSAQDSDIDLQDA
In the case of B4, the binding result is recorded as “no binding” in [8], “no binding” in assay [9], “binds” in assay [3] and “no binding” in assay [10].
